Values marked as one replicate rest on one cluster of the flow cell; about a third of the high ones do not repeat.
System: ATP
Assay: switch fluorescence ratio, 500 uM ATP over buffer (Cy3 cluster intensity, sum of 5 cycles each) (fold (ratio)); higher = stronger signal-on switching upon ATP binding; sequences stand for … in TCGTCGGCAGCGTCAGATGTGTATAAGAGACAGTTTTTTTTTTTTTTTTTTTTTTTTT…TC
Settings: aptamer strand: ATP DNA aptamer (quencher-CACCTGGGGGAGTATTGCGGAGGAAGG + anchor), 100 nM annealed; ATP concentration: 500 uM; one replicate
Method in brief: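 Between each of five buffer/ATP cycles, the flow-cell was stripped with NaOH and re-annealed. Each cycle imaged Cy3-labelled switching-strand clusters, annealed to 100 nM quencher-labelled ATP aptamer on a modified Illumina MiSeq flow-cell, first in selection buffer and then after 15 min with 500 uM ATP at 22 °C. The fluorescence ratio is summed target-cycle over summed buffer-cycle Cy3 intensity per cluster, averaged per switch-domain sequence, with clusters outside 100-1000 RFU excluded.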
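Note: ATP exposure 15 min at 22 °C before imaging.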

Sequence	switch fluorescence ratio
CTCGTAATGG	1.72
TGCATTGGAT	1.03
TTACTAAGGC	0.986
CGAGGGCCAG	1.01
AATCTATAAG	0.999
TTTAAGCGCA	1.07
GCCTTTTGAG	1.05
TGGAGAGCTT	1.02
AGGGGTCACA	0.954
GATCTGCACT	1.18
GGCCACAAGA	1.02
ATAGCCCGTT	1.02
CACACTGGGT	1.03
TTACGATTAC	1.43
CCGTTAAGCT	1.69
TATAATTTGG	0.966
TGGATTAAGA	1.01
TTACCAAGA	1.02
CTAGGACAGT	1.03
TATTAGCCCC	1.04
GGCACTGCTG	0.978
AGGTGTATAT	1.04
TACTTGAGCT	1.01
AAGCCATCCA	1.04
GCCGCGCGTA	0.96
GCACTAAACA	1.06

Sequence	switch fluorescence ratio
GGGAGCAGTT	1.04
GGAGCTCTGG	1.01
GCTAACGCTG	1.07
ATGCGGGCTT	1.04
ATTGGCTCTC	1.02
TAACCAGGCC	1.05
CCGGATTGGG	1.02
GTCGTAGTTA	0.995
GCACGATCTA	1.02
ACATTATGTC	1.12
TGGGCCAGAA	1.03
AGCGATGATG	0.932
GATGCGGAG	1.01
GTAAGACTGG	0.978
CCGCTCGAAA	5.76
TACAGGGTTC	1
AGAGCGCGAA	1.04
ATTAGGGCGT	1.02
GGAGCCAAGT	1.08
GGTATGTAGT	0.994
ACCAGGCCGT	0.969
TGTTGCGGAC	1.01
AGTATGCAGG	0.973
GTTTCGCGCG	1
TGGGAATCGC	0.995
GGTCTTGTTA	0.969

Sequence	switch fluorescence ratio
GTGACGTAAC	1.22
TAAGCTAGGG	0.989
GTTGATCAGT	1
CTGATAGAGC	0.992
ATAAGTGGCT	0.938
GCCCGTTGTA	1.03
TGATGGTTAA	1.06
TTCTATCGAC	1.04
TCGCTGATTG	1.01
CCCATTCTTT	1.02
GTCTGATGTT	1.01
TATCCGCGTT	2.23
AGATCTGAGT	0.978
CTCCTGTAGT	1.07
CGTCGGTGAC	1.01
TGCATAGTGC	1.01
AGAGGGGTGT	1.07
TCCTTGCTT	1.01
GATGGGATTA	1.09
AAGGAACTTC	1.06
CTCAACCTTT	1.04
CTTCTATGTG	0.97
CTTAGTTCAA	0.961
CAGCTTGGAG	1.07
AGAGGCTAGT	1
TTCACCGTTG	1.01

Sequence	switch fluorescence ratio
ATTGGAAGT	0.969
ACTACCGCAT	2.24
ACGGTTTAAG	1.03
ATGCTGGTA	0.949
ATTTACACGG	1.05
GATTCCTCTT	2.23
ATAAGCCC	1.05
TTGCGAACCT	1.51
GCCGTTGCTT	1.02
GCTGTTGGGG	1.01
TCCTGTTCT	1.05
TGTTCAGGG	0.972
ACGAATTTGG	0.97
GCGATTCGGA	0.985
TGATATCCGG	0.955
CGCGGCCAGT	0.969
TCAAAGAGGC	1.06
ACATAGAGCG	1.06
CCGCGTATCA	1.03
TCCCCTTTCG	1.04
AGGCTACTTA	1
GAGCTTAAAA	1.06
TGCGTACCTC	1.12
GGGCAGAACT	1.02
GCGAAAGGTA	1.03
TGAACCTGCA	1.69

Sequence	switch fluorescence ratio
GCTAGTCCAC	1.03
CGGTGTTCTG	1
GTGGTTAATT	0.972
ATTAAGGACT	1.01
AAGCAGGT	1.07
TTGAAGCTT	1.03
TGCAAGGGAC	1.83
TCGAAACGGA	1.03
CGCGTAGAGT	1.06
GGTTCCTCGG	1.12
TGCTATACA	1.08
TATATCCAAG	1.01
CTGGATCTTG	0.974
CCGCTTGATT	1.17
ACTTTGAGTT	0.993
ACGTGGCCGG	1.04
TTCGTGGCTA	1.06
AAAAATGGG	0.994
TTCAACAGG	1.2
ACTCGATGAA	0.983
GGGTGACTAA	1.01
TAGGTTTTAC	0.982
CCTTATCGCG	1.03
ATTTGGGTAA	1
GCGAGAACTT	0.982
TCATCCATTC	1.13

Sequence	switch fluorescence ratio
AAGGATATC	1
CGAAAATATT	0.996
AGGTAGGATA	1.04
ATCAAGCGTT	0.966
CCGCCGTCCG	1.41
TGCGCTGTAA	1.05
CATACTCACG	1.45
TAACACCCGA	1.07
AGTCTTTACC	0.975
GTTCCAGCAT	1.19
TTTAACTTGC	1.09
TATTTCTGGT	0.935
TTTTCTATAG	1.03
GACGGGTAAC	1.03
TTCAATCTAG	1.03
CTTTATTA	1.01
AAAAAGTAGG	1.02
TGATTCATCA	0.972
CCTAGGCTGG	1.1
GAATGATAAT	1.03
TACGGCGCAA	1.17
GGGGAGACGC	1.03
AACGAACACG	1.16
